The record followed here is patent US20230167169A1.

Test [1] addresses N-Interface (Plasmodium falciparum). Briefly: BLI; biotinylated target on streptavidin sensor; antibody at 5 µg/mL; BLI: target immobilized, antibody flowed over it (multivalent binding possible).
The target in test [2] is … (Plasmodium falciparum). The test is described as above.

Bounds are passed on as bounds.

Usually Kd stands for the constant that tells how readily two partners part at equilibrium. High values mean weaker binding, low ones tighter binding. Usually koff stands for the rate constant with which the complex falls apart. Lower therefore signals a long-lived complex. In general, kon refers to a measure of how fast the partners come together. A high value points to fast association.

B1: AB-000224 (antibody)
light: ESVLTQPPSVSGAPGQRVTISCTGMNSNIGAGYDVYWYQQLPGRAPKLLIYGNSNRPSGVPDRFSGSRSGTSASLAITGLQAEDEADYYCQSYDTSLNGWAFGGGTKLTVLGQPKAAPSVTLFPPSSEELQANKATLVCLVSDFYPGAVTVAWKADGSPVKVGVETTKPSKQSNNKYAASSYLSLTPEQWKSHRSYSCRVTHEGSTVEKTVAPAECS
heavy: EVQLVESGGGLVQPGRSLRLPCTASGFSFGDHAMSWVRQAPGKGLEWVGFIRKTTYGATTHYAAAVRGRFTISRDDSKSIVYLQMNSLKTEDTAVYFCTRVQLDYGPGYQYYGMDVWGQGTTVTVSS[… human IgG1 constant region …]
In test [1], B1 gave a Kd of 4.57 nM, a koff of 0.012 s⁻¹ and a kon of 2.63e+06 M⁻¹ s⁻¹.

B2: AB-007088 (antibody)
light: GVQMTQSPSTLSASVGDRVTLTCRASQSISSWLAWYQQKPGKAPKLLIYDASSLESGVPSRFSGSGSGTEFTLTISSLQPDDFATYYCQQYNSYSFWTFGQGTKVEIKRTVAAPSVFIFPPSDEQLKSGTASVVCLLNNFYPREAKVQWKVDNALQSGNSQESVTEQDSKDSTYSLSSTLTLSKADYEKHKVYACEVTHQGLSSPVTKSFNRGEC
heavy: QVQLVESGGGVVQPGRSLRLSCAASGFAFNTYGMHWVRQTPGKGLEWVAIIWYDGSQKYYADSVQGRFIISRDNHKNTLSLQMNGLRAEDTAVYFCVRVRFSVGPHGSAFDLWGQGTMVIVSS[… human IgG1 constant region …]
On to B2, for which the Kd in test [2] was < 0.00933 nM.
